This note sets out measurements from the supplement of paper PMC9446081.

The whole screen tested about 39,000 compounds, of which about 220 (0.56%) showed activity. This is one part of the list.
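Further: static incubation at 37 °C against the wild-type strain, values averaged over two biological replicates.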

This assay concerns Escherichia coli K-12 BW25113. Kind of assay: relative growth (OD600 normalised to plate interquartile mean) (fraction); higher = less growth inhibition, active = 0.2 or less. The conditions noted are these: 50 µM; LB; incubation time: overnight (16-24 h).
`NCC[C@@H]1CC[C@@H](NC(=O)NC2CCCCC2)[C@H](CO)O1`: the relative growth was inactive: 1.03.

For the molecule `Cc1ccc2[nH]c3c(c2c1)CCC[C@H]3Nc1ccc(Cl)cc1`, the relative growth was inactive: 1.

As for `C[C@@H]1CN([C@@H](C)CO)C(=O)c2ccccc2-c2ccccc2CO[C@H]1CN(C)S(=O)(=O)c1cn(C)cn1`, the relative growth is inactive: 0.984.

Take `CCCC(=O)Nc1ccc2c(c1)OC[C@@H](C)N(S(=O)(=O)c1cn(C)cn1)C[C@@H](C)[C@H](OC)CN(C)C2=O`: the relative growth was inactive: 0.998.

For the molecule `O=C(C[C@H]1CC[C@H]2[C@@H](COC[C@@H](O)CN2S(=O)(=O)c2ccc(F)cc2)O1)N1CCc2ccccc2C1`, the relative growth is inactive: 0.964.

In the case of `Cc1noc(C)c1NC(=O)N(C)C[C@@H]1Oc2c(NC(=O)c3cnccn3)cccc2C(=O)N([C@@H](C)CO)C[C@H]1C`, the relative growth was inactive: 0.999.

As for `C[C@@H]1CN([C@@H](C)CO)C(=O)c2cc(C#CC3(O)CCCC3)cnc2O[C@@H]1CN(C)C(=O)C1CCCCC1`, the relative growth was inactive: 0.995.

As for `C[C@H](CO)N1C[C@H](C)[C@@H](CN(C)Cc2ccc(C(F)(F)F)cc2)Oc2c(NC(=O)c3ccc(-c4nccs4)cc3)cccc2C1=O`, the relative growth was inactive: 1.01.

For the molecule `C[C@@H]1CN([C@H](C)CO)C(=O)c2cc(NS(=O)(=O)c3cccs3)ccc2O[C@H]1CN(C)Cc1ccc(Oc2ccccc2)cc1`, the relative growth is inactive: 1.02.

Take `C[C@H]1CN([C@@H](C)CO)C(=O)c2cc(NS(=O)(=O)c3ccccc3)ccc2O[C@H]1CN(C)Cc1ccc(Oc2ccccc2)cc1`: the relative growth was inactive: 1.

Turning to `COCCNC(=O)C[C@H]1CC[C@@H]2[C@H](COc3ccc(NC(=O)Nc4cccc(F)c4)cc3C(=O)N2C)O1`, the relative growth is inactive: 0.974.

`CCN1C(=O)S/C(=C\C(=O)O)C1=O`: the relative growth was inactive: 0.98.

For `C[C@@H]1CCCCO[C@H](CN(C)Cc2ccncc2)[C@H](C)CN([C@@H](C)CO)C(=O)c2cc(NS(=O)(=O)c3ccc(Cl)cc3)ccc2O1`, the relative growth was inactive: 1.02.

Take `COc1ccc(CN(C)C[C@H]2Oc3ccc(NC(=O)CCCCCC(=O)Nc4ccccc4N)cc3CC(=O)N([C@@H](C)CO)C[C@@H]2C)cc1`: the relative growth is inactive: 1.01.

For the molecule `C[C@H]1CN([C@@H](C)CO)C(=O)Cc2cc(NS(=O)(=O)c3cccs3)ccc2O[C@@H]1CN(C)S(=O)(=O)c1ccc(F)cc1`, the relative growth was inactive: 1.01.

In the case of `C[C@@H]1CN([C@H](C)CO)C(=O)c2cc(NS(=O)(=O)c3cn(C)cn3)ccc2O[C@H]1CN(C)S(=O)(=O)c1ccc(F)cc1`, the relative growth was inactive: 1.01.

`COc1ccc(NC(=O)N(C)C[C@H]2OCCCC[C@@H](C)Oc3ccc(NS(=O)(=O)c4ccc(C)cc4)cc3C(=O)N([C@H](C)CO)C[C@@H]2C)cc1`: the relative growth is inactive: 0.944.

Take `COc1ccc(CN(C)C[C@H]2Oc3c(NS(C)(=O)=O)cccc3C(=O)N([C@H](C)CO)C[C@H]2C)cc1`: the relative growth is inactive: 1.01.

With `C[C@@H]1CCCCO[C@H](CN(C)C)[C@H](C)CN([C@@H](C)CO)C(=O)c2cc(NC(=O)CCCN(C)C)ccc2O1`, the relative growth was inactive: 0.975.

Turning to `CCn1c(N)nc2c1c(=O)[nH]c(=O)n2C`, the relative growth was inactive: 0.99.

For `C[C@H](CO)N1C[C@H](C)[C@@H](CN(C)S(=O)(=O)c2ccc(Cl)cc2)OCCCC[C@H](C)Oc2ccc(NC(=O)CCC(F)(F)F)cc2C1=O`, the relative growth is inactive: 1.

On to `CC(C)NC(=O)Nc1ccc2c(c1)C(=O)N([C@H](C)CO)C[C@@H](C)[C@H](CN(C)Cc1ccccc1)OCCCC[C@H](C)O2`, for which the relative growth is inactive: 0.992.

With `C[C@H](CO)N1C[C@H](C)[C@H](CN(C)CC2CCCCC2)OCCCC[C@H](C)Oc2ccc(NC(=O)Nc3ccccc3)cc2C1=O`, the relative growth is inactive: 0.986.

For `NC(=O)N/N=C/c1ccc([N+](=O)[O-])o1`, the relative growth is active: 0.0425.

Regarding `COc1ccc(NC(=O)N(C)C[C@H]2OCc3cnnn3CCCC(=O)N([C@@H](C)CO)C[C@@H]2C)c(OC)c1`, the relative growth was inactive: 1.

As for `COCCNC(=O)C[C@@H]1CC[C@H]2[C@@H](COC[C@@H](O)CN2C(=O)Nc2ccccc2OC)O1`, the relative growth is inactive: 0.919.

`C[C@H]1CN([C@@H](C)CO)C(=O)c2cccc(NC(=O)c3ccncc3)c2O[C@H]1CN(C)S(=O)(=O)c1ccccc1`: the relative growth was inactive: 1.02.

For `O=C(C[C@H]1C[C@@H]2c3cc(NC(=O)c4ccc5c(c4)OCO5)ccc3O[C@@H]2[C@@H](CO)O1)NCCc1ccccc1`, the relative growth is inactive: 1.01.

Regarding `C[C@@H]1CCCCO[C@H](CN(C)C(=O)Cc2ccccc2)[C@@H](C)CN([C@@H](C)CO)C(=O)c2cc(NC(=O)Nc3ccc(F)cc3)ccc2O1`, the relative growth is inactive: 1.03.

On to `C[C@@H]1CN([C@@H](C)CO)C(=O)c2cc(NS(=O)(=O)c3ccc(F)cc3)ccc2O[C@@H]1CN(C)S(=O)(=O)c1cccs1`, for which the relative growth is inactive: 1.

Regarding `Cc1noc(C)c1NC(=O)Nc1ccc2c(c1)C(=O)N([C@@H](C)CO)C[C@@H](C)[C@H](CN(C)C(=O)C1CCCCC1)OCCCC[C@H](C)O2`, the relative growth is inactive: 1.01.

`Clc1nc(-c2ccccn2)nc2scc(-c3ccccc3)c12`: the relative growth is inactive: 0.979.

Consider `CC(=O)C1C(=O)C=C(C)OC1=O` (stereo unspecified), for which the relative growth was inactive: 0.841.

As to `CCOC(=O)CNC(=O)c1cnn2cccnc12`, the relative growth was inactive: 1.02.

With `O=C(C[C@H]1C=C[C@@H](NC(=O)c2cccnc2)[C@H](CO)O1)NCCN1CCCCC1`, the relative growth is inactive: 1.01.

Take `C[C@@H]1CN([C@@H](C)CO)C(=O)c2cc(NC(=O)Cc3ccccc3)ccc2O[C@H]1CN(C)C(=O)Nc1ccc(C(F)(F)F)cc1`: the relative growth is inactive: 0.995.

For `C[C@@H]1CN([C@@H](C)CO)C(=O)c2cc(N(C)C)ccc2O[C@@H](C)CCCCO[C@H]1CN(C)C(=O)CCCN(C)C`, the relative growth was inactive: 1.01.

With `C[C@H](CO)N1C[C@H](C)[C@H](CN(C)S(=O)(=O)c2cn(C)cn2)Oc2ccc(NS(=O)(=O)c3cn(C)cn3)cc2CC1=O`, the relative growth was inactive: 0.993.

For `C[C@H](CO)N1C[C@H](C)[C@H](CN(C)Cc2ccc3c(c2)OCO3)OCc2ccccc2-c2c(n(C)c3ccccc23)C1=O`, the relative growth was inactive: 0.973.

With `C[C@@H]1CN([C@@H](C)CO)C(=O)c2cc(NC(=O)Cc3ccccc3)ccc2O[C@H]1CN(C)Cc1ccc(Cl)c(Cl)c1`, the relative growth is inactive: 1.01.

`C[C@@H]1CN([C@H](C)CO)C(=O)c2cc(C#CC3(O)CCCC3)cnc2O[C@@H]1CN(C)C(=O)C1CCCCC1`: the relative growth is inactive: 1.02.

For the molecule `COc1ccc(NC(=O)N(C)C[C@H]2Oc3c(NS(=O)(=O)c4c(C)noc4C)cccc3C(=O)N([C@@H](C)CO)C[C@H]2C)cc1`, the relative growth is inactive: 0.987.

Turning to `C=CCN1C(=O)[C@]2(O[C@H](CCn3cc([C@H](O)c4ccccc4)nn3)[C@@H]([Si](C)(C)c3ccc(OC)cc3)[C@@H]2C)c2cc(N3C(=O)c4cccc5cccc3c45)ccc21`, the relative growth was inactive: 1.01.

`COc1ccc(S(=O)(=O)N(C)C[C@@H]2Oc3cc(C#CC4CC4)ccc3S(=O)(=O)N([C@H](C)CO)C[C@@H]2C)cc1`: the relative growth is inactive: 1.04.

Regarding `C[C@@H]1CN([C@H](C)CO)S(=O)(=O)c2ccc(C#CCN(C)C)cc2O[C@@H]1CN(C)Cc1ccccc1F`, the relative growth is inactive: 1.03.

For `CC(=O)n1cc([C@@H]2C=C(C(=O)NCc3ccccc3)O[C@H](OCc3ccc(CO)cc3)C2)c2ccccc21`, the relative growth is inactive: 1.01.

With `C[C@H](CO)N1C[C@H](C)[C@@H](CN(C)Cc2ccc3c(c2)OCO3)Oc2c(NC(=O)Nc3cccc4ccccc34)cccc2C1=O`, the relative growth was inactive: 1.01.

As to `C[C@@H]1CCCCO[C@H](CN(C)C(=O)Nc2ccc(F)cc2)[C@H](C)CN([C@H](C)CO)C(=O)c2cc(NC(=O)c3ccncc3)ccc2O1`, the relative growth is inactive: 0.988.

As to `COc1ccccc1NC(=O)N(C)C[C@H]1OCc2ccccc2-c2c(n(C)c3ccccc23)C(=O)N([C@@H](C)CO)C[C@@H]1C`, the relative growth is inactive: 1.01.

Take `C[C@@H]1CN([C@H](C)CO)C(=O)c2cc(C#Cc3ccncc3)cnc2O[C@@H]1CN(C)S(=O)(=O)c1ccccc1F`: the relative growth was inactive: 0.995.

Turning to `CNCC1CCOCC1`, the relative growth was inactive: 0.959.

For the molecule `OC[C@H]1O[C@@](CO)(O[C@H]2O[C@H](CO)[C@@H](O)[C@H](O)[C@H]2O)[C@@H](O)[C@@H]1O`, the relative growth was inactive: 0.983.

On to `C[C@H](CO)N1C[C@H](C)[C@H](CN(C)Cc2ccc(Oc3ccccc3)cc2)Oc2ncc(-c3cccnc3)cc2C1=O`, for which the relative growth was inactive: 1.03.

On to `COc1cc2c(cc1OC)CN(CCc1ccc(NC(=O)c3cc(OC)c(OC)cc3NC(=O)c3cnc4ccccc4c3)cc1)CC2`, for which the relative growth was inactive: 0.965.

As for `O=C1CN(S(=O)(=O)Cc2ccccc2)C[C@H]2[C@H](c3ccc(C#Cc4cccc(F)c4)cc3)[C@@H](CO)N12`, the relative growth is inactive: 1.01.

Consider `C[C@@H]1CN([C@H](C)CO)C(=O)c2cccc(NC(=O)CCCCCC(=O)Nc3ccccc3N)c2O[C@@H]1CN(C)Cc1ccc(C(F)(F)F)cc1`, for which the relative growth was inactive: 1.02.

For `Cc1ccccc1C(=O)Nc1ccc(C(=O)N2CCCC(O)c3cc(Cl)ccc32)c(C)c1` (stereo unspecified), the relative growth is inactive: 0.823.

For `C[C@@H]1CN([C@@H](C)CO)C(=O)c2cc(NC(=O)Cc3ccccc3)ccc2O[C@@H](C)CCCCO[C@H]1CN(C)C(=O)CCC(F)(F)F`, the relative growth was inactive: 0.969.

For `CC(C)NC(=O)Nc1cccc2c1O[C@@H](CN(C)Cc1ccc3c(c1)OCO3)[C@@H](C)CN([C@H](C)CO)C2=O`, the relative growth was inactive: 0.939.

Regarding `COc1cccc(S(=O)(=O)N(C)C[C@H]2OCc3cnnn3CCCC(=O)N([C@H](C)CO)C[C@H]2C)c1`, the relative growth is inactive: 1.04.

In the case of `Cc1ccc(S(=O)(=O)Nc2ccc3c(c2)C(=O)N([C@@H](C)CO)C[C@H](C)[C@H](CN(C)S(C)(=O)=O)OCCCC[C@@H](C)O3)cc1`, the relative growth was inactive: 1.
